Measured values from PubChem BioAssay AID1745853 (National Center for Advancing Translational Sciences (NCATS), 2022).
Several values for one entry are separate records, joined by “and”; a condition that tells them apart may be missing. Equal values may be shown once. This is one part of the list. The main result of the screen is listed elsewhere. These columns were measured beside it and carry no call.

Experiments:
Test in all cases: Primary Screen for Target Class Profiling of Small Molecule Inhibitors of Methyltransferases
[1] = target: Glycine N-methyltransferase (Homo sapiens) (UniProt Q14749); details: purified enzyme, MTase-Glo SAH luminescence; measured here: GNMT inhibition; at 40 µM; stronger effect = lower value
How it was run: (§1)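 Each enzyme was assayed with SAM and its substrate. SAH formation detected by MTase-Glo luminescence; single-point 40 uM screen[…].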

[2] = target: Guanidinoacetate N-methyltransferase (Homo sapiens) (UniProt Q14353); details: purified enzyme, MTase-Glo SAH luminescence; measured here: GAMT inhibition; at 40 µM; stronger effect = lower value
How it was run: as §1

[3] = target: Histamine N-methyltransferase (Homo sapiens) (UniProt P50135); details: purified enzyme, MTase-Glo SAH luminescence; measured here: HNMT inhibition; at 40 µM; stronger effect = lower value
How it was run: as §1

[4] = target: Nicotinamide N-methyltransferase (Homo sapiens) (UniProt P40261); details: purified enzyme, MTase-Glo SAH luminescence; measured here: NNMT inhibition; at 40 µM; stronger effect = lower value
How it was run: as §1

[5] = target: Phenylethanolamine N-methyltransferase (Homo sapiens) (UniProt P11086); details: purified enzyme, MTase-Glo SAH luminescence; measured here: PNMT inhibition; at 40 µM; stronger effect = lower value
How it was run: as §1
% is set by controls: 0 for no effect and ±100 for the full control effect.

Row | SMILES | activity change, negative = inhibition [1] | activity change, negative = inhibition [2] | activity change, negative = inhibition [3] | activity change, negative = inhibition [4] | activity change, negative = inhibition [5]
1 | COC(=O)c1cccc(Nc2ncnc3ccc(C)cc23)c1 | -7.98% | 0% | 3.31% | 4.1% | -1.81%
2 | CC(=O)OC1/C(C)=C/C(=O)C(OC(C)=O)C(C)(C)/C=C/C(C)C(=O)C2(OC(C)=O)CC(C)C(OC(=O)c3ccccc3)C12 (stereo not given) | 0% | -0.437% | 1.88% | -12.7% | 1.99%
3 | C=C1C(=O)OC2CC3(C)C(CC12)C(C)=CC(O)C3OC(C)=O (stereo not given) | -0.37% | 1.31% | 9.87% | -10.2% | 3.37%
4 | CNCc1cc(-c2ccccc2F)n(S(=O)(=O)c2cccnc2)c1 | -3.79% | 0.135% | 2.98% | -12.2% | 0.056%
5 | Cc1cc2c(cc3n2CC(C)(C(=O)NC2CCCCCC2)N(c2cccc(C)c2C)C3=O)o1 (stereo not given) | -0.776% | 2.65% | 1.52% | 6.18% | 1.09%
6 | CCc1cc2c(cc3n2CC(C)(C(=O)NC2CCCCC2)N(CCN(C)C2CCCCC2)C3=O)s1 (stereo not given) | 2.99% | 3.9% | 3.02% | 3.71% | 2.76%
7 | O=C(CCc1nnc2n(Cc3ccccc3Cl)c(=O)c3ccccc3n12)N1CCN(Cc2ccccc2)CC1 | -27.8% | 3.52% | 2.39% | -21.3% | -2.67%
8 | O=c1[nH]c2ccccc2n1C1CCN(S(=O)(=O)c2ccc(-n3cnnn3)cc2)CC1 | 1.31% | 0% | 3.54% | 5.68% | -1.01%
9 | CCOC(=O)c1cc2n(n1)CC(C)(C(=O)NC1CCCCC1)N(c1ccc(C)c(C)c1)C2=O (stereo not given) | 6.32% | 0.819% | -2.98% | 10.6% | 5.8%
10 | Cc1occc(=O)c1O[C@@H]1O[C@H](COC(=O)CC(C)(O)CC(=O)O)[C@@H](O)[C@H](O)[C@H]1O (stereo not given in full) | 2.92% | -2.95% | 7.61% | -15.9% | 4.16%
11 | COc1ccc(C2=NOC3(CCN([S+](=O)([O-])c4cccc(C(F)(F)F)c4)C3)C2)cc1 (stereo not given) | -3.24% | -1.99% | -0.964% | -4.81% | -10.1%
12 | COc1ccc(-c2nnc3n2CCN([S+](=O)([O-])c2c(C)noc2C)C3)cc1 | -6.03% | -6.89% | -2.82% | -11.2% | -9.24%
13 | COc1ccc(C2CC(c3ccccc3)=NN2c2ccc(S(N)(=O)=O)cc2)cc1 (stereo not given) | 5.17% | -10.9% | 6.06% | -19.6% | -7.12%
14 | CC1=CC(=O)CC(C)(C)C1/C=C/C(C)OC1OC(COC2OCC(O)C(O)C2O)C(O)C(O)C1O (stereo not given) | -2.54% | -9.99% | 6.13% | -18.3% | -0.205%
15 | CC(C)Oc1ccc2c(NC(=O)CN3CCCC3=O)nn(Cc3ccccc3)c2c1 | -6.35% | -7.86% | -4.68% | -18.2% | -3.29%
16 | C[C@@]1(O)CCN(Cc2ccc(Br)o2)C[C@H]1N1CCCC1 | -8.27% | 0.025% | -0.853% | 0.699% | 5.35%
17 | COc1ccc(CNC(=O)c2cc3n(n2)CC(C)(C(=O)NC2CCCCCC2)N(C)C3=O)cc1OC (stereo not given) | 3.66% | 4.6% | -0.258% | 4.08% | -0.493%
18 | COc1ccc2c(c1)C(COCc1ccc(C(=O)O)cc1)=CC(C)(C)CO2 | -6.61% | -3.42% | -1.2% | -14.3% | -7.67%
19 | Cc1ccccc1Cn1nc2n(CCC(C)C)c(=O)c3ccc(C(=O)NCC(C)C)cc3n2c1=O | -7.01% | 4.28% | 0.483% | 3.65% | 1.62%
20 | O=C(c1ccc2c(=O)nc3c(-c4ccccc4)n[nH]n3c2c1)N1CCN(c2ccccn2)CC1 | -1.69% | 3.23% | 0.354% | -1.7% | -0.954%
21 | CC1=C2C(=O)O[C@@H](c3ccoc3)[C@]2(C)CCC1 | -6.41% and -5.5% | -16% and -0.316% | 2.17% and 0.276% | -27% and -16% | -1.98% and -3.53%
22 | COCCCNC(=O)CCc1nnc2n(Cc3ccc(C)cc3)c(=O)c3ccccc3n12 | -7.75% | 4.17% | -1.71% | 7.42% | -5.58%
23 | COc1ccc(CN2CC[C@H](c3nc(C)no3)[C@H](NC(=O)C3CC3)C2)cc1 | -0.492% | 1.84% | 2.76% | -6.19% | -2.37%
24 | COC(=O)[C@H]1[C@H]2C[C@@H]3c4[nH]c5cc(OC)ccc5c4CCN3C[C@H]2C[C@@H](OC(=O)/C=C/c2cc(OC)c(OC)c(OC)c2)[C@@H]1OC | 0.095% | 9.06% | 2.98% | -25.4% | 3.53%
25 | COCCOc1ccc2c(c1)ncn2-c1ccc2cccc(N3CCC(N)CC3)c2n1 | -14.1% | -51.9% | -46.4% | -43% | -55.4%
26 | O=C1COc2ccc(Nc3ccc(C(F)(F)F)cc3)nc2CN1 | -11.9% | -2.81% | -0.516% | -7.78% | -5.79%
27 | CC(C)n1c(=O)c2ccc(C(=O)NC3CCCCC3)cc2n2c(=O)n(CC(=O)N(C)c3ccccc3)nc12 | 0.814% | 4.63% | 4.28% | 0.007% | 1.77%
28 | CC(C)NC(=O)CSc1nnc2n(C)c(=O)c3ccc(C(=O)NC4CCCCC4)cc3n12 | -1.94% | 0% | 7.25% | 5.57% | 7.52%
29 | O=C(c1ccc2c(=O)nc3c(-c4ccccc4)n[nH]n3c2c1)N1CCN(c2ccccc2)CC1 | 0.672% | 1.54% | 1.15% | 4.72% | 2.19%
30 | Cc1cc(Nc2cc(N3CCN(C)CC3)nc(/C=C/c3ccccc3)n2)n[nH]1 | -14.9% | -4.55% | -29.5% | -23.8% | -6.61%
